{"source": "the supplement of paper PMC8728848", "binders": {"B1": {"name": "Cohesin-hLangerin (Homo sapiens) (protein)", "chain": "LDDLDAVRIKVDTVNAKPGDTVRIPVRFSGIPSKGIANCDFVYSYDPNVLEIIEIEPGDIIVDPNPDKSFDTAVYPDRKIIVFLFAEDSGTGAYAITKDGVFATIVAKVKEGAPNGLSVIKFVEVGGFANNDLVEQKTQFFDGGANVGDTTEPATPTTPVTTPTTTDDLDAASYPRFMGTISDVKTNVQLLKGRVDNISTLDSEIKKNSDGMEAAGVQIQMVNESLGYVRSQFLKLKTSVEKANAQIQILTRSWEEVSTLNAQIPELKSDLEKASALNTKIRALQGSLENMSKLLKRQNDILQVVSQGWKYFKGNFYYFSLIPKTWYSAEQFCVSRNSHLTSVTSESEQEFLYKTAGGLIYWIGLTKAGMEGDWSWVDDTPFNKVQSARFWIPGEPNNAGNNEHCGNIKAPSLQAWNDAPCDKTFLFICKRPYVPSEPHHHHHH"}}, "assay_in_all_cases": "glycan array binding signal (z-score within array); higher = stronger binding", "details_in_all_cases": "glycan notation: IUPAC condensed, linker removed", "key": {"GlcNAc(b1-3)Man": {"molecular_target": "GlcNAc(b1-3)Man", "how_it_was_run": "(§1)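 The Consortium for Functional Glycomics database supplied 3228 glycan arrays, of which those lacking an available protein sequence were dropped. The binding signal, a within-array Z-score, was averaged across arrays of the same protein sequence and across linkers. Negative scores can be read as non-binding.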"}, "[1]": {"molecular_target": "GlcNAc(b1-3)[GlcNAc(b1-4)][GlcNAc(b1-6)]GlcNAc", "how_it_was_run": "as §1"}, "[2]": {"molecular_target": "GlcNAc(b1-3)[GlcNAc(b1-6)]Gal(b1-4)GlcNAc", "how_it_was_run": "as §1"}, "[3]": {"molecular_target": "GlcNAc(b1-3)[GlcNAc(b1-6)]GalNAc", "how_it_was_run": "as §1"}, "[4]": {"molecular_target": "GlcNAc(b1-4)Gal(b1-4)GlcNAc", "how_it_was_run": "as §1"}, "GlcNAc(b1-4)GlcNAc": {"molecular_target": "GlcNAc(b1-4)GlcNAc", "how_it_was_run": "as §1"}, "[5]": {"molecular_target": "GlcNAc(b1-4)GlcNAc(b1-4)GlcNAc", "how_it_was_run": "as §1"}, "[6]": {"molecular_target": "GlcNAc(b1-4)GlcNAc(b1-4)GlcNAc(b1-4)GlcNAc(b1-4)GlcNAc", "how_it_was_run": "as §1"}, "[7]": {"molecular_target": "GlcNAc(b1-4)GlcNAc(b1-4)GlcNAc(b1-4)GlcNAc(b1-4)GlcNAc(b1-4)GlcNAc", "how_it_was_run": "as §1"}, "[8]": {"molecular_target": "GlcNAc(b1-4)[GlcNAc(b1-6)]GalNAc", "how_it_was_run": "as §1"}, "[9]": {"molecular_target": "GlcNAc(b1-6)Gal(b1-4)GlcNAc", "how_it_was_run": "as §1"}, "GlcNAc(b1-6)GalNAc": {"molecular_target": "GlcNAc(b1-6)GalNAc", "how_it_was_run": "as §1"}, "[10]": {"molecular_target": "GlcNAc6S(b1-3)Gal(b1-4)GlcNAc", "how_it_was_run": "as §1"}, "Kdn(a2-3)Gal(b1-3)GalNAc": {"molecular_target": "Kdn(a2-3)Gal(b1-3)GalNAc", "how_it_was_run": "as §1"}, "Kdn(a2-3)Gal(b1-3)GlcNAc": {"molecular_target": "Kdn(a2-3)Gal(b1-3)GlcNAc", "how_it_was_run": "as §1"}, "Kdn(a2-3)Gal(b1-4)Glc": {"molecular_target": "Kdn(a2-3)Gal(b1-4)Glc", "how_it_was_run": "as §1"}, "Kdn(a2-3)Gal(b1-4)GlcNAc": {"molecular_target": "Kdn(a2-3)Gal(b1-4)GlcNAc", "how_it_was_run": "as §1"}, "[11]": {"molecular_target": "Kdn(a2-3)Gal(b1-4)[Fuc(a1-3)]GlcNAc", "how_it_was_run": "as §1"}, "Kdn(a2-6)Gal(b1-4)GlcNAc": {"molecular_target": "Kdn(a2-6)Gal(b1-4)GlcNAc", "how_it_was_run": "as §1"}, "[12]": {"molecular_target": "Man(a1-2)Man(a1-2)Man(a1-3)Man", "how_it_was_run": "as §1"}, "[13]": {"molecular_target": "Man(a1-2)Man(a1-2)Man(a1-6)[Man(a1-3)]Man", "how_it_was_run": "as §1"}, "Man(a1-2)Man(a1-3)Man": {"molecular_target": "Man(a1-2)Man(a1-3)Man", "how_it_was_run": "as §1"}, "[14]": {"molecular_target": "Man(a1-2)Man(a1-3)[Man(a1-2)Man(a1-6)]Man", "how_it_was_run": "as §1"}, "[15]": {"molecular_target": "Man(a1-2)Man(a1-3)[Man(a1-2)Man(a1-6)]Man(a1-6)[Man(a1-2)Man(a1-2)Man(a1-3)]Man", "how_it_was_run": "as §1"}, "[16]": {"molecular_target": "Man(a1-2)Man(a1-3)[Man(a1-2)Man(a1-6)]Man(a1-6)[Man(a1-2)Man(a1-2)Man(a1-3)]Man(b1-4)GlcNAc(b1-4)GlcNAc", "how_it_was_run": "as §1"}, "[17]": {"molecular_target": "Man(a1-2)Man(a1-3)[Man(a1-6)]Man(a1-6)[Man(a1-2)Man(a1-3)]Man(b1-4)GlcNAc(b1-4)GlcNAc", "how_it_was_run": "as §1"}, "[18]": {"molecular_target": "Man(a1-2)Man(a1-6)[Man(a1-3)]Man(a1-6)[Man(a1-2)Man(a1-2)Man(a1-3)]Man", "how_it_was_run": "as §1"}, "[19]": {"molecular_target": "Man(a1-2)Man(a1-6)[Man(a1-3)]Man(a1-6)[Man(a1-2)Man(a1-2)Man(a1-3)]Man(b1-4)GlcNAc(b1-4)GlcNAc", "how_it_was_run": "as §1"}, "Man(a1-3)[Man(a1-6)]Man": {"molecular_target": "Man(a1-3)[Man(a1-6)]Man", "how_it_was_run": "as §1"}, "[20]": {"molecular_target": "Man(a1-3)[Man(a1-6)]Man(a1-6)[Man(a1-2)Man(a1-3)]Man(b1-4)GlcNAc(b1-4)GlcNAc", "how_it_was_run": "as §1"}, "[21]": {"molecular_target": "Man(a1-3)[Man(a1-6)]Man(a1-6)[Man(a1-3)]Man", "how_it_was_run": "as §1"}, "[22]": {"molecular_target": "Man(a1-3)[Man(a1-6)]Man(a1-6)[Man(a1-3)]Man(b1-4)GlcNAc(b1-4)GlcNAc", "how_it_was_run": "as §1"}, "[23]": {"molecular_target": "Man(a1-3)[Man(a1-6)]Man(b1-4)GlcNAc(b1-4)GlcNAc", "how_it_was_run": "as §1"}, "[24]": {"molecular_target": "Man(a1-3)[Man(a1-6)]Man(b1-4)GlcNAc(b1-4)[Fuc(a1-6)]GlcNAc", "how_it_was_run": "as §1"}, "Man(a1-6)Man": {"molecular_target": "Man(a1-6)Man", "how_it_was_run": "as §1"}, "Man(b1-4)GlcNAc": {"molecular_target": "Man(b1-4)GlcNAc", "how_it_was_run": "as §1"}, "MurNAc(b1-4)GlcNAc": {"molecular_target": "MurNAc(b1-4)GlcNAc", "how_it_was_run": "as §1"}, "Neu5Ac(a2-3)Gal": {"molecular_target": "Neu5Ac(a2-3)Gal", "how_it_was_run": "as §1"}}, "note": "The list shows a part of the results."}
{"binder": "B1", "values": [{"measurement": "glycan array binding signal (z-score)", "setting": "GlcNAc(b1-3)Man", "result": 0.012}, {"measurement": "glycan array binding signal (z-score)", "setting": "[1]", "result": -0.445}, {"measurement": "glycan array binding signal (z-score)", "setting": "[2]", "result": 0.009}, {"measurement": "glycan array binding signal (z-score)", "setting": "[3]", "result": -0.334}, {"measurement": "glycan array binding signal (z-score)", "setting": "[4]", "result": -0.254}, {"measurement": "glycan array binding signal (z-score)", "setting": "GlcNAc(b1-4)GlcNAc", "result": -0.193}, {"measurement": "glycan array binding signal (z-score)", "setting": "[5]", "result": -0.362}, {"measurement": "glycan array binding signal (z-score)", "setting": "[6]", "result": -0.242}, {"measurement": "glycan array binding signal (z-score)", "setting": "[7]", "result": -0.396}, {"measurement": "glycan array binding signal (z-score)", "setting": "[8]", "result": -0.419}, {"measurement": "glycan array binding signal (z-score)", "setting": "[9]", "result": -0.258}, {"measurement": "glycan array binding signal (z-score)", "setting": "GlcNAc(b1-6)GalNAc", "result": -0.105}, {"measurement": "glycan array binding signal (z-score)", "setting": "[10]", "result": 0.664}, {"measurement": "glycan array binding signal (z-score)", "setting": "Kdn(a2-3)Gal(b1-3)GalNAc", "result": -0.137}, {"measurement": "glycan array binding signal (z-score)", "setting": "Kdn(a2-3)Gal(b1-3)GlcNAc", "result": -0.413}, {"measurement": "glycan array binding signal (z-score)", "setting": "Kdn(a2-3)Gal(b1-4)Glc", "result": -0.351}, {"measurement": "glycan array binding signal (z-score)", "setting": "Kdn(a2-3)Gal(b1-4)GlcNAc", "result": -0.423}, {"measurement": "glycan array binding signal (z-score)", "setting": "[11]", "result": -0.373}, {"measurement": "glycan array binding signal (z-score)", "setting": "Kdn(a2-6)Gal(b1-4)GlcNAc", "result": -0.222}, {"measurement": "glycan array binding signal (z-score)", "setting": "[12]", "result": -0.313}, {"measurement": "glycan array binding signal (z-score)", "setting": "[13]", "result": 5.38}, {"measurement": "glycan array binding signal (z-score)", "setting": "Man(a1-2)Man(a1-3)Man", "result": -0.28}, {"measurement": "glycan array binding signal (z-score)", "setting": "[14]", "result": -0.385}, {"measurement": "glycan array binding signal (z-score)", "setting": "[15]", "result": 6.69}, {"measurement": "glycan array binding signal (z-score)", "setting": "[16]", "result": -0.318}, {"measurement": "glycan array binding signal (z-score)", "setting": "[17]", "result": -0.429}, {"measurement": "glycan array binding signal (z-score)", "setting": "[18]", "result": 0.917}, {"measurement": "glycan array binding signal (z-score)", "setting": "[19]", "result": 6.34}, {"measurement": "glycan array binding signal (z-score)", "setting": "Man(a1-3)[Man(a1-6)]Man", "result": 0.835}, {"measurement": "glycan array binding signal (z-score)", "setting": "[20]", "result": -0.128}, {"measurement": "glycan array binding signal (z-score)", "setting": "[21]", "result": -0.311}, {"measurement": "glycan array binding signal (z-score)", "setting": "[22]", "result": -0.396}, {"measurement": "glycan array binding signal (z-score)", "setting": "[23]", "result": -0.358}, {"measurement": "glycan array binding signal (z-score)", "setting": "[24]", "result": 1.65}, {"measurement": "glycan array binding signal (z-score)", "setting": "Man(a1-6)Man", "result": 2.08}, {"measurement": "glycan array binding signal (z-score)", "setting": "Man(b1-4)GlcNAc", "result": 0.002}, {"measurement": "glycan array binding signal (z-score)", "setting": "MurNAc(b1-4)GlcNAc", "result": -0.43}, {"measurement": "glycan array binding signal (z-score)", "setting": "Neu5Ac(a2-3)Gal", "result": -0.391}]}
